Reference: US11365205B2 (Aurigene Discovery Technologies Limited, priority 2018, dated 2022)

Molecular target: PRMT5/MEP50 Complex (Homo sapiens (Human), UniProt O14744)
Assay: PRMT5 inhibition based on TR-FRET assay
Format: biochemical
Conditions: 32 nM PRMT5:MEP50, 50 nM Histone-H4 peptide, 1 μM SAM
Description: PRMT5 Inhibition Based on TR-FRET Assay:
Protein arginine methyltransferase 5 (PRMT5) is a type II arginine methyltransferase that catalyze mono- and symmetric demethylation on arginine residues of histone or non-histone proteins in presence of S-adenosylmethionine (AdoMet or SAM) a cofactor responsible for donating the methyl group. PRMT5 is reported to be overexpressed in several human cancers. To identify compounds that inhibit the PRMT5 and decrease its activity, a TR-FRET based assay has been established. Time-resolved fluorescence resonance energy transfer (TR-FRET) HTS assays are homogeneous proximity assays where the interaction of two dye-labeled binding partners is detected by the energy transfer between a donor and an acceptor dye and the subsequent light emission by the acceptor dye. PRMT5 catalyzes Histone H4 peptide which is biotin tagged to the Lysine amino acid at carboxyl end, in presence of S-adenosyl-1-methionine (SAM) to methylate the peptide. The antibody specific to mono methylated H4 peptide (H4R3) with Ig conjugate binds to the methylated peptide, indirectly binding to the Europium lanthanide. […]
The compound dilutions were prepared as 7.5% DMSO stock solutions in assay buffer. […] The plates were then read on Victor-3 with Excitation at 340 nm and Emissions collected at 615 and 665 nm in TR-FRET protocol. […]

Chain of UniProt O14744 (O14744 whole entry): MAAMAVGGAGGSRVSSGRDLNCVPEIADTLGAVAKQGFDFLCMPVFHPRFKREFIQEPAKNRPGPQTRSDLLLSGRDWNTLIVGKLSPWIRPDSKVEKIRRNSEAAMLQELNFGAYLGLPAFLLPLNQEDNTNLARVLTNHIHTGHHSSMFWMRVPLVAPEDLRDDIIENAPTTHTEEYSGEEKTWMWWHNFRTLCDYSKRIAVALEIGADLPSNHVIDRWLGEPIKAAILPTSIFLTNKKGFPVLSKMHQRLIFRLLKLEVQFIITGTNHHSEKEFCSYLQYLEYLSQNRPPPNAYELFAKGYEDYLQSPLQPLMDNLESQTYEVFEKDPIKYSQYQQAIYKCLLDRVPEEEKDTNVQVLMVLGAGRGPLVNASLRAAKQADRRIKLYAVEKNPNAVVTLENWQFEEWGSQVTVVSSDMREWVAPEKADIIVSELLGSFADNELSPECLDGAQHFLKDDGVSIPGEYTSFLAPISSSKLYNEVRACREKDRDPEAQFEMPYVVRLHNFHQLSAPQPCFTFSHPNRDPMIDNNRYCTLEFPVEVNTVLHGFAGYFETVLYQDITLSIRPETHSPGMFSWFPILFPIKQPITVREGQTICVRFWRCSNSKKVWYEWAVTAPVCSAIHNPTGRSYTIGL
Chain of UniProt O14744 (Q9BQA1 whole entry partner): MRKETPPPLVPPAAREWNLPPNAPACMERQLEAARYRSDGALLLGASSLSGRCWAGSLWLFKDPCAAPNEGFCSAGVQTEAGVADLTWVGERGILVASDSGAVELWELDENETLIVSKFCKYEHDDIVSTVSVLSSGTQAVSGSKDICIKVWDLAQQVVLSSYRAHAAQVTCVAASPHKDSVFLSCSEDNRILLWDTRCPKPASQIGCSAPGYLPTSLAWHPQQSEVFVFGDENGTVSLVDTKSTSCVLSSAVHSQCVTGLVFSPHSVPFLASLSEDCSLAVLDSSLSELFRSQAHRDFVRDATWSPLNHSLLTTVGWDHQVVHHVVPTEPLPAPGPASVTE

IC50 [nM]	Structure (SMILES)
160	CC1(C)CN(Cc2ccc(C#N)cn2)C(=O)N1CC(O)CN1CCc2ccccc2C1 (centres unmarked) [Example 38, 6-((3-(3-(3,4-Dihydroisoquinolin-2(1H)-yl)-2-hydroxypropyl)-4,4-dimethyl-2-oxoimidazolidin-1-yl)methyl)nicotinonitrile]
220	N#Cc1ccc(CN2CCN(CC(O)CN3CCc4ccccc4C3)C2=O)cc1F (centres unmarked) [Example 39, 4-((3-(3-(3,4-Dihydroisoquinolin-2(1H)-yl)-2-hydroxypropyl)-2-oxo-imidazolidin-1-yl)methyl)-2-fluorobenzonitrile]
